# Measurements as given in the supplement of paper PMC3334620.
# Over roughly 33,000 sequences, “E-score (-0.5 to 0.5)” has its median near -0.011; the highest 2% begin near 0.28. This is one part of the list.
# Target: T1, Gcr1 (UniProt P07261)
# T1 sequence: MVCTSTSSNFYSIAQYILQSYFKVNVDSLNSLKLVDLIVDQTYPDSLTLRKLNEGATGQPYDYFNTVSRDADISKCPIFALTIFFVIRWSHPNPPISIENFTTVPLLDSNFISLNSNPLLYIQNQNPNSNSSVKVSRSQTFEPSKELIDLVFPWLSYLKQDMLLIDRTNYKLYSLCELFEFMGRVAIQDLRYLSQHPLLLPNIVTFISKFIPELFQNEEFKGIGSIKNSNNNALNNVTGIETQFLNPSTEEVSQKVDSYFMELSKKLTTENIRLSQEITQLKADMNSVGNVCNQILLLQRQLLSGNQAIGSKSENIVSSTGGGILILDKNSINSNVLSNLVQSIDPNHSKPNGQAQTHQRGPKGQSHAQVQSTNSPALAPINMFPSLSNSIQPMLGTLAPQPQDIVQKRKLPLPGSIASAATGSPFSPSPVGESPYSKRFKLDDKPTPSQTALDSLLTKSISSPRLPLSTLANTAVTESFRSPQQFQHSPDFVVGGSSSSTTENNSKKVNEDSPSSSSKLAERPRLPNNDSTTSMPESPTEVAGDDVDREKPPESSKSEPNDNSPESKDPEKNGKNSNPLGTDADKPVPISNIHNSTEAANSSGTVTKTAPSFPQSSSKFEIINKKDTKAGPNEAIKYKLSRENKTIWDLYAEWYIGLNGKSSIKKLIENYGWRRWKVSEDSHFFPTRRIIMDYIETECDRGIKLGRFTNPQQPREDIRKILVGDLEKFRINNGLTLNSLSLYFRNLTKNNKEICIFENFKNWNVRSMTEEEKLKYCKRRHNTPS
# Test: PBM E-score (8-mer binding enrichment) (E-score (-0.5 to 0.5)); higher = stronger / more preferred TF binding; most listed sequences are background and not binding sites
# Settings: protein concentration: 100 nM; construct: GST-full length
# How it was run: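 Universal all-10-mer Agilent arrays, double-stranded by primer extension on fresh or once-stripped slides, were probed with about 100-200 nM GST-tagged yeast transcription factors made by PURExpress. Fluorescent anti-GST detected bound protein, and masliner normalised the scans. E-scores from the Universal PBM Analysis Suite were given to each ungapped eight-base word pooled with its reverse complement.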
row,Sequence,PBM E-score
1,ATGTACAA,-0.14
2,ACGGTACC,-0.0315
3,TAACCAGA,0.139
4,ACTGCCAT,0.0395
5,CGCTCCTC,-0.226
6,CTATGCAA,-0.1
7,CTCCAGTA,0.214
8,ACAATATA,-0.0662
9,CGTACCCC,-0.202
10,ACAAAGAT,-0.106
11,AGGCTGTA,-0.114
12,ATCCTCTC,0.0674
13,GGGAGGCA,-0.029
14,GTCGCAAA,-0.0286
15,GCACATCC,-0.182
16,AGTCATAC,-0.047
17,ACCCTACG,-0.14
18,ACCGGGAT,0.191
19,CGTTCCGA,0.14
20,CGACCAGC,-0.218
21,GAGTCACA,-0.0486
22,ACATGGAA,0.128
23,ACACCGGT,-0.0348
24,CCACAACA,0.138
25,CTAGGCAG,0.027

row,Sequence,PBM E-score
1,AATTCCTA,0.0723
2,ACATTATC,0.0205
3,AGTGGGGA,0.0734
4,AAGCTCTC,-0.203
5,TTCCCGAA,0.205
6,TCCTACGA,-0.122
7,ATGTCTCA,-0.167
8,CCCGTATA,0.116
9,AAATTGAC,0.0927
10,CCTTTTAG,0.15
11,ATATATAA,0.12
12,ACGCTATA,0.107
13,AGTTACTC,-0.119
14,ATATTTTG,-0.0728
15,ACTGTGTA,0.108
16,CATAGGGA,0.0429
17,CCCCCTCA,-0.245
18,CTCTAAGC,-0.00427
19,GCTGTGTA,0.0303
20,ACAAAGAC,-0.143
21,ATACAAAA,0.127
22,ACACTTTC,0.101
23,GCACGTAC,-0.0835
24,ACTCTGCT,-0.168
25,CCACACTC,0.063

row,Sequence,PBM E-score
1,ATGCGAGC,0.173
2,ACGTGGAT,-0.0577
3,ACCCCAAC,0.0095
4,ACGCAGTG,-0.105
5,ACCTAGGC,-0.176
6,CATCAGTC,-0.298
7,CCGAATAG,0.0276
8,ACGGCGCC,0.312
9,GGATTGTA,-0.127
10,CAATGTTC,-0.0163
11,AGCATCCG,0.372
12,ATGCTCTG,0.121
13,CCTCTCGA,-0.22
14,AACGTGGG,-0.197
15,CATGCACA,-0.13
16,GCGCATGA,-0.104
17,ATCGCACA,-0.277
18,CTACGAAG,0.0785
19,GGGACTTA,-0.171
20,ACCTACGT,-0.112
21,CAACCCTG,-0.0684
22,GCGCGGTA,0.0713
23,AGGGATTG,0.0467
24,GTCAGCCA,-0.113
25,ACACTACC,-0.139

row,Sequence,PBM E-score
1,AGTGCTAA,0.082
2,TACCTCCA,-0.101
3,CGACAGGA,0.185
4,AAGCTTAG,-0.0247
5,ACCGATCG,-0.182
6,AGTCATAT,-0.0105
7,CCTGTATA,0.2
8,ACATTAAA,0.00365
9,CCTATTTC,0.0629
10,CGTACTCC,-0.134
11,GAGACGTA,-0.0782
12,TCTGAGCA,0.0835
13,ACCCTATC,-0.0336
14,ATTTGGAG,0.0526
15,CCACGTGA,-0.0287
16,ACAGCGAG,-0.112
17,AAAGTCTC,-0.151
18,GCAATTGC,-0.0766
19,TGATTTAA,0.00884
20,GGGGCTAA,0.0181
21,GGGTGCTA,0.26
22,AACCTTAA,-0.0496
23,CAACAAGC,0.00715
24,ATATAGGC,0.187
25,ACCGAAAA,0.18

row,Sequence,PBM E-score
1,GCAGCACC,0.103
2,AGCGCGTC,0.0937
3,ACACTAAA,0.116
4,ACTTCCTA,0.245
5,CGTTAGAA,-0.155
6,GCGAACCC,-0.0857
7,AGAAAACT,-0.0344
8,ACGTAAAT,0.0369
9,AGAGACAC,-0.0221
10,ACGGACCC,-0.0859
11,GGCCGCAA,-0.215
12,CGAACGTA,-0.161
13,AATGTCGT,0.216
14,CTGGGTCC,0.0719
15,CCATGTCC,-0.14
16,CGGTGCTA,0.208
17,CATCTAAC,0.244
18,CATTGGAG,0.0154
19,CAAACGCA,-0.0531
20,CATATTGA,-0.052
21,AGCCCGGA,-0.0472
22,CATCACGA,-0.0802
23,CTCTGTCC,-0.0795
24,AATGACAG,-0.154
25,GACTTGCC,-0.157

row,Sequence,PBM E-score
1,ACAAGAGA,-0.0683
2,ATACATTC,-0.178
3,CTAGGCAA,0.00069
4,CGGGTGCA,0.0724
5,GTAACTAA,0.16
6,CCCCTGCA,-0.117
7,GACATCAC,-0.0799
8,CAGTGGGC,-0.0102
9,CAATGGCC,-0.192
10,AATGACTC,-0.0582
11,AGGGAAAG,-0.15
12,GAAGATAA,0.0599
13,AACTTAAG,0.0794
14,CAAGTCAG,-0.108
15,CGGTGGAA,0.0286
16,CTTGGATC,0.221
17,ACGCAACT,0.186
18,CCCGATCG,-0.0246
19,ATCTGCGA,0.0591
20,GACCGATA,-0.125
21,GAACTGCC,-0.0585
22,ATGGAGTC,0.0937
23,AGACCAGA,0.0754
24,AAGCGCAA,-0.103
25,GTAGCTAC,0.184

row,Sequence,PBM E-score
1,AGCAGTAG,0.00486
2,CCGCCTAG,-0.0452
3,AATGGTCC,0.00758
4,CGCCTGAC,-0.00014
5,GTCGAGCA,0.0187
6,ATTCCCTG,-0.0502
7,AGGGAGGA,-0.182
8,ACTGTGGA,0.113
9,GATCCGCC,-0.047
10,GAATATCC,0.0215
11,GGATATCC,-0.206
12,AGACGACT,-0.0708
13,CGGAACTA,-0.0112
14,CACATTAG,0.00352
15,ATTGCTAA,0.0586
16,ATTGTTGG,0.0636
17,AGTGGGAA,0.119
18,CACTCTGA,-0.0127
19,CAGTTCGA,-0.0672
20,GAAGAATC,0.19
21,CTGTATCA,0.00368
22,GGGTATAA,-0.0225
